{"source": "paper PMC4336329", "about": "(PLoS ONE, 2015)", "note": "About 14,000 (4.5%) of roughly 310,000 compounds showed an effect of 50% or more. The effect is printed as a negative number. Some of the results follow.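 Note: peak tail current of the secondary pulse compared with the same well before compound.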", "data": [{"target": "human ether-à-go-go-related gene (hERG) potassium channel (human, UniProt Q12809)", "sequence (Q12809 whole entry, looked up)": "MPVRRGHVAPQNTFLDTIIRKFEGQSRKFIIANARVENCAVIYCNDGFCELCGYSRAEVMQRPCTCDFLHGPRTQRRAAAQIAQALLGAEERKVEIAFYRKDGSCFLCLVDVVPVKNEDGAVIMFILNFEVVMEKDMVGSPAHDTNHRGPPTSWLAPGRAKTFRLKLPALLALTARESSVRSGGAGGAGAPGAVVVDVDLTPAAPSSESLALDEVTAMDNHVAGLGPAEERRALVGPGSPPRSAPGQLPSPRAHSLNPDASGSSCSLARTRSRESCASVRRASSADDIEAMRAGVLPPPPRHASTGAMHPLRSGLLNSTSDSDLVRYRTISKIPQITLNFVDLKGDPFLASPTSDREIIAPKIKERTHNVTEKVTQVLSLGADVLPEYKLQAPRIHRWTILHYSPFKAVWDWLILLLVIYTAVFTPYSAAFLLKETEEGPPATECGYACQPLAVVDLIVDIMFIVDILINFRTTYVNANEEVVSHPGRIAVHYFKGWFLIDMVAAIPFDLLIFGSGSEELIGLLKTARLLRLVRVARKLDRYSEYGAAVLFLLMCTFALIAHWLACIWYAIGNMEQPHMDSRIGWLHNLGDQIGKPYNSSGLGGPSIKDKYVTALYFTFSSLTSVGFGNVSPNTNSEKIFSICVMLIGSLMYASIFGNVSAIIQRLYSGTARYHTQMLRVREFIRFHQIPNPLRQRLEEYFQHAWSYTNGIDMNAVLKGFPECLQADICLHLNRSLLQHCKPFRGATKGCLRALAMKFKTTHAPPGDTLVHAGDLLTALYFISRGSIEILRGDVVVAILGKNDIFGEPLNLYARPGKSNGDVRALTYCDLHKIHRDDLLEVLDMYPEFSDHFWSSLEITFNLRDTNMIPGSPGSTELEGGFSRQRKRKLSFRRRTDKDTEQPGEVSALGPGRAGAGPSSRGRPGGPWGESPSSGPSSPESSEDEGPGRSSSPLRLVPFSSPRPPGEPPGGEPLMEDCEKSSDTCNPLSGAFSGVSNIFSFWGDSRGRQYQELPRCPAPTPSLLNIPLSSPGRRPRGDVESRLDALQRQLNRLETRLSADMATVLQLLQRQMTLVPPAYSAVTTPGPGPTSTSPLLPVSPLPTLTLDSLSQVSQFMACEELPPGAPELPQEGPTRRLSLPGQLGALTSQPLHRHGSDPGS", "assay": "primary screen, population patch clamp on CHO cells stably expressing hERG", "units": {"hERG current change (%, negative = inhibition) at 10uM": "%"}, "values": [{"smiles": "O=C(Nc1nncs1)c1cccc(S(=O)(=O)N2CCOCC2)c1", "hERG current change (%, negative = inhibition) at 10uM": 3.17}, {"smiles": "COc1ccc(C(=O)n2nc(-c3ccc(C)cc3)nc2N)cc1OC", "hERG current change (%, negative = inhibition) at 10uM": 12.1}, {"smiles": "CC1CCCN(S(=O)(=O)c2ccc3c(c2)C(C)(C)C(=O)N3C)C1", "note": "(stereo not drawn)", "hERG current change (%, negative = inhibition) at 10uM": 9.32}, {"smiles": "CC(C)(C)NC(=O)CSc1nnc(NC(=O)c2ccccc2Cl)s1", "hERG current change (%, negative = inhibition) at 10uM": 6.62}, {"smiles": "CC(C)Cc1csc(NC(=O)c2ccc(Br)cc2)c1C(=O)O", "hERG current change (%, negative = inhibition) at 10uM": 35.7}, {"smiles": "Fc1ccc(CO/N=C2\\CCCc3nonc32)cc1", "hERG current change (%, negative = inhibition) at 10uM": -39.8}, {"smiles": "O=C(CNC(=O)c1cc2ccccc2o1)NCc1cccs1", "hERG current change (%, negative = inhibition) at 10uM": 15.2}, {"smiles": "CCC(C)N=C1CC(C)(C)CC(=O)/C1=C(/O)Cc1ccccc1", "note": "(stereo not drawn)", "hERG current change (%, negative = inhibition) at 10uM": -4.03}, {"smiles": "COc1ccccc1N1CCN(/N=C/c2ccc([N+](=O)[O-])cc2)CC1", "hERG current change (%, negative = inhibition) at 10uM": 2.79}, {"smiles": "COc1ccccc1-c1cc(C(=O)N2CCOCC2)no1", "hERG current change (%, negative = inhibition) at 10uM": 10.5}, {"smiles": "Cc1ccc(Cl)c(OCC(=O)OC(C)C(=O)NC2CC2)c1", "note": "(stereo not drawn)", "hERG current change (%, negative = inhibition) at 10uM": -3.46}, {"smiles": "COc1ccc(Cn2c(C(C)C)nc3sc4ccccc4c(=O)c3c2=O)cc1", "hERG current change (%, negative = inhibition) at 10uM": 12.4}, {"smiles": "CN(C)c1ccc(C(CNS(=O)(=O)c2cccc([N+](=O)[O-])c2)N2CCOCC2)cc1", "note": "(stereo not drawn)", "hERG current change (%, negative = inhibition) at 10uM": -10.9}, {"smiles": "Nc1ccc(S(=O)(=O)N2CCc3ccccc32)cc1", "hERG current change (%, negative = inhibition) at 10uM": 10.8}, {"smiles": "CC(=O)Nc1cccc(-c2nnc(SCC(=O)n3c4c(c5ccccc53)CCCC4)n2C)c1", "hERG current change (%, negative = inhibition) at 10uM": 2.33}, {"smiles": "Cc1[nH]nc(SCC(=O)NCC(C)C)c1[N+](=O)[O-]", "hERG current change (%, negative = inhibition) at 10uM": 6.45}, {"smiles": "Cc1csc(CN(C)C(=O)CC2C(=O)NCCN2Cc2ccc(F)cc2Cl)n1", "note": "(stereo not drawn)", "hERG current change (%, negative = inhibition) at 10uM": -13.5}, {"smiles": "Cc1ccc(NC(=O)c2ccc3nc[nH]c3c2)cc1C", "hERG current change (%, negative = inhibition) at 10uM": -5.53}, {"smiles": "O=C(Nc1ccc2c(c1)CCCN2C(=O)c1cccs1)c1c(F)cccc1F", "hERG current change (%, negative = inhibition) at 10uM": 1.56}, {"smiles": "CNC(=O)N(O)C1N(/N=C/c2ccc(SC)cc2)C(=S)SC1(C)C", "note": "(stereo not drawn)", "hERG current change (%, negative = inhibition) at 10uM": 26.3}, {"smiles": "Cc1ccc([N+](=O)[O-])cc1S(=O)(=O)N1CCC(C)CC1", "hERG current change (%, negative = inhibition) at 10uM": 6.62}, {"smiles": "CCN(CC)c1ccc(/C=N/NC(=O)Cc2cccs2)c(O)c1", "hERG current change (%, negative = inhibition) at 10uM": 9.91}, {"smiles": "COc1ccccc1C(=O)OCc1nc(N)nc(Nc2ccccc2C)n1", "hERG current change (%, negative = inhibition) at 10uM": -2.18}, {"smiles": "CN(C)c1ccnc2sc(C(=O)NCc3ccccc3)c(N)c12", "hERG current change (%, negative = inhibition) at 10uM": -27.6}, {"smiles": "COc1cc(C(=O)Nc2ccc(-n3cnnn3)c(C)c2)cc(OC)c1OC", "hERG current change (%, negative = inhibition) at 10uM": -4.29}, {"smiles": "CC(=O)Nc1ccc(NC(=O)Cn2c(=O)n(-c3ccccc3)c(=O)c3oc4ccccc4c32)cc1", "hERG current change (%, negative = inhibition) at 10uM": -19.8}, {"smiles": "O=C(NC(c1ccccc1)c1ccccc1)N1CCN(CCO)CC1", "hERG current change (%, negative = inhibition) at 10uM": -5.23}, {"smiles": "CCOc1ccc2nc(SC3CC(=O)N(c4ccc(OC)cc4)C3=O)sc2c1", "note": "(stereo not drawn)", "hERG current change (%, negative = inhibition) at 10uM": 9.11}, {"smiles": "Cc1cc(C)c(S(=O)(=O)c2ccccc2C)c(OCCO)n1", "hERG current change (%, negative = inhibition) at 10uM": -3.41}, {"smiles": "CCOc1ccc(NC(=O)c2cccc(OC(=S)N3CCC(C)CC3)c2)cc1", "hERG current change (%, negative = inhibition) at 10uM": -2.73}, {"smiles": "Cc1[nH]nc(Sc2ccccn2)c1[N+](=O)[O-]", "hERG current change (%, negative = inhibition) at 10uM": -0.138}, {"smiles": "CCOc1cc2c(cc1OCC)-n1cccc1C(c1ccc(F)c(OC)c1)NC2.Cl", "note": "(stereo not drawn)", "hERG current change (%, negative = inhibition) at 10uM": -9.53}, {"smiles": "C#CCOCCOCCOCCNc1nc(N2CCN(C(=O)Cn3cc(CCCC[NH3+])nn3)CC2)nc(N2CCN(C(=O)[C@H](CCCC[NH3+])n3cc(CCCC)nn3)CC2)n1.[Cl-]", "hERG current change (%, negative = inhibition) at 10uM": 3.72}, {"smiles": "CCOC(=O)c1c(C)[nH]c(C)c1C(=O)COC(=O)c1sccc1C", "hERG current change (%, negative = inhibition) at 10uM": -1.13}, {"smiles": "Cc1cc(C)n(C(=O)c2cc([N+](=O)[O-])cc([N+](=O)[O-])c2)n1", "hERG current change (%, negative = inhibition) at 10uM": 7.8}, {"smiles": "O=C(NC1CCCC1)c1ccc([N+](=O)[O-])s1", "hERG current change (%, negative = inhibition) at 10uM": 8.21}, {"smiles": "COc1ccc(S(=O)(=O)N(CCc2ccccc2)CC(=O)N2CCOCC2)cc1", "hERG current change (%, negative = inhibition) at 10uM": -32.6}, {"smiles": "CC(=O)Nc1ccc(S(=O)(=O)NC(CC(=O)O)c2ccc(C)cc2)cc1", "note": "(stereo not drawn)", "hERG current change (%, negative = inhibition) at 10uM": -7.31}, {"smiles": "O=C(CSc1nnc(-c2cccc(S(=O)(=O)N3CCCCC3)c2)o1)c1ccc[nH]1", "hERG current change (%, negative = inhibition) at 10uM": 1.41}, {"smiles": "CCOc1ccc(C(C(=O)NC2CCCC2)N(CCOC)C(=O)CNC(=O)c2ccco2)cc1", "note": "(stereo not drawn)", "hERG current change (%, negative = inhibition) at 10uM": -18.9}, {"smiles": "COCCNC(=O)C(OC(=O)C1=Cc2ccccc2OC1)C(C)C", "note": "(stereo not drawn)", "hERG current change (%, negative = inhibition) at 10uM": 10.3}, {"smiles": "CCOC(=O)N1CCC(NC(=O)c2ccc3c(c2)N=C(CC)c2cc(C)ccc2S3)CC1", "hERG current change (%, negative = inhibition) at 10uM": 4.25}, {"smiles": "CCN(c1cccc(C)c1)S(=O)(=O)c1ccc2[nH]c(=O)c(=O)[nH]c2c1", "hERG current change (%, negative = inhibition) at 10uM": -9.87}, {"smiles": "Cc1ccc(-n2c(C)nc3ncnc(-c4ccccc4)c32)cc1", "hERG current change (%, negative = inhibition) at 10uM": 0.191}, {"smiles": "Cc1ccc(CNC(=O)c2ccc(N3CCC4(CC3)CC(c3ccccc3)=NO4)c(NC(=O)c3ccc(Br)cc3)c2)cc1", "hERG current change (%, negative = inhibition) at 10uM": 31.6}, {"smiles": "CCC(NC(=O)Cc1c(C)c2c(cc(C)c3c(C)c(C)oc32)oc1=O)C(=O)O", "note": "(stereo not drawn)", "hERG current change (%, negative = inhibition) at 10uM": 0.0315}, {"smiles": "COc1cccc(CN(C)C(=O)c2ccc(Oc3ccccc3)cc2)c1OC", "hERG current change (%, negative = inhibition) at 10uM": -1.11}, {"smiles": "CS(=O)(=O)N(Cc1ccccc1)c1ccc(C(=O)N2CCc3ccccc3C2)cc1", "hERG current change (%, negative = inhibition) at 10uM": -30}, {"smiles": "COCCNC(=O)COc1ccc(N(C)S(=O)(=O)c2ccc3ccccc3c2)cc1", "hERG current change (%, negative = inhibition) at 10uM": -62}, {"smiles": "COc1cccc(C(C(=O)NC2CCCC2)N(CCC(C)C)C(=O)CCC(=O)Nc2cc(C)on2)c1", "note": "(stereo not drawn)", "hERG current change (%, negative = inhibition) at 10uM": -23.3}, {"smiles": "CC(=O)CCc1c(C)c2cc(C)ccc2[nH]c1=O", "hERG current change (%, negative = inhibition) at 10uM": -6.99}, {"smiles": "Fc1ccccc1CSc1ncnc2sc3c(c12)CCCC3", "hERG current change (%, negative = inhibition) at 10uM": 2.75}, {"smiles": "COc1ccc(C(=O)/C=C/c2ccc(N3CCCCC3)c([N+](=O)[O-])c2)c(OC)c1", "hERG current change (%, negative = inhibition) at 10uM": 2.73}, {"smiles": "CC(C)n1c(C(F)(F)F)nc2cc(C(=O)N3CCOCC3)ccc21", "hERG current change (%, negative = inhibition) at 10uM": 16.3}]}]}
